A number of entries come with more than one value. The other results are left out here. The source may hold further records. The values listed for one entry appear to be repeats on other runs, samples or individuals.
What was measured:
[1] = biological target: human CD27 (transmembrane protein) on the cell membrane (human) (UniProt P26842); test: flow cytometry on CHO cells expressing human CD27
[2] = biological target: CD27-mFc (Kangdai) (human) (UniProt P26842); test: ELISA on coated CD27-mFc

CD27 monoclonal antibody Varlilumab (1F5)
EC50 [1]: 0.386 µg/mL and 2.58 nM [columns of one line] | EC50 [2]: 0.0603 µg/mL and 0.404 nM [columns of one line]

— patent publication US20260265393A1
